Among all 310,000 compounds or so, about 14,000 (4.5%) showed an effect of 50% or more. The effect is printed as a negative number. This is one part of the list.
biological target: human ether-à-go-go-related gene (hERG) potassium channel (human, UniProt Q12809); assay: primary screen, population patch clamp on CHO cells stably expressing hERG
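Note: peak tail current of the secondary pulse compared with the same well before compound.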

human ether-à-go-go-related gene (hERG) potassium channel, sequence (Q12809 whole entry, looked up): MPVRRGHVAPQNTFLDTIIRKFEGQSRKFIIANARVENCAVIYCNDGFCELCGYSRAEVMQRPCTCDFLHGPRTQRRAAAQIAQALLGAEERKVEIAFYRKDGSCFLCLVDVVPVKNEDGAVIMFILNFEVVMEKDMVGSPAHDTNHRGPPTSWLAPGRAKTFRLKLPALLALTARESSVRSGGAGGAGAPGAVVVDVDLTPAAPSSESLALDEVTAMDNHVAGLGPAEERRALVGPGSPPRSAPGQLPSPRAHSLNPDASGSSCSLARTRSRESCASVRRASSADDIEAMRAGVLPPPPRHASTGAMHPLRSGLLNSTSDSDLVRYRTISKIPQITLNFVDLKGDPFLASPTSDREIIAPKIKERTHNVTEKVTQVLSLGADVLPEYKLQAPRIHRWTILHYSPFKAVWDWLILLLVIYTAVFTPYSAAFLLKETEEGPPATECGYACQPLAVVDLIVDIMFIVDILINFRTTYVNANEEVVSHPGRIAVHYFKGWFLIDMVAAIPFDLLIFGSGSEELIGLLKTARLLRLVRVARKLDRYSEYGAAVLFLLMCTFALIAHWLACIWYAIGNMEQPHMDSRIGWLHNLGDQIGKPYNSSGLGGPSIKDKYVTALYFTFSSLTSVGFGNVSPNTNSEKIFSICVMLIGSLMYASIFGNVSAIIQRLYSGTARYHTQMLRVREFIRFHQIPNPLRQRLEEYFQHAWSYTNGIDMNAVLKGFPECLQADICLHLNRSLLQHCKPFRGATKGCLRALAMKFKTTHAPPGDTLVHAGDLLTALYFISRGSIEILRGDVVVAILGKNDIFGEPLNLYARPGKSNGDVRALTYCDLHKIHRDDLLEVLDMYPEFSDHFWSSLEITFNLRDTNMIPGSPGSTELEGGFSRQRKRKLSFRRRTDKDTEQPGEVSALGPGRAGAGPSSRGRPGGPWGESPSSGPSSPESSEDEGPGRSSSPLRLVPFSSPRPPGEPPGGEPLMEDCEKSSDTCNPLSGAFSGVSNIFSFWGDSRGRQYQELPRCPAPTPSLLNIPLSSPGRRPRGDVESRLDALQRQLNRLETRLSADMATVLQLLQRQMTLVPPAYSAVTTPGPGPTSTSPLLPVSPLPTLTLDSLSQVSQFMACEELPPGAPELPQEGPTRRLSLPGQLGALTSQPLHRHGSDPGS

Compound | hERG current change (%, negative = inhibition) at 10uM [%]
CC1=C(C(=O)NCc2ccccn2)C2(CCC(C)CC2)OC1=O (stereo not shown) | -2.42
COc1ccc(NC(=O)CSCC(=O)Nc2ccc(S(=O)(=O)N3CCCC3)cc2)cc1 | 26.7
Cc1ccc(C(=O)CSc2nc3cc(S(=O)(=O)N4CCOCC4)ccc3o2)cc1 | 6.11
CC(C)C(O)(C(=O)NNc1ccccc1)C(C)C | -10.7
Cc1ccc(C(=O)C2Oc3ccccc3C3CC(c4ccc(C)cc4)=NN23)cc1 (stereo not shown) | 5.49
O=C(c1cnc2n(c1=O)CCS2)N1CCCc2ccccc21 | -0.974
COc1ccc(C2C(C#N)=C(N)Oc3cc(O)ccc32)cc1C (stereo not shown) | -26.1
O=C1NCCO1 | -1.82
CCOC(=O)c1c(O)c2ccccc2n(CC)c1=O | 10.4
CC(C)Cn1c(=O)oc2ccccc21 | 15.1
N#C/C(=C\c1c(Cl)cccc1Cl)c1nc2ccccc2o1 | -3.16
COc1ccc(/C=C(/NC(=O)c2ccco2)C(=O)NCc2ccco2)cc1OC | 6.29
O=C(CSc1nc2ccccc2c(=O)n1Cc1ccc(C(=O)NC2CC2)cc1)NCc1ccco1 | -51.5
O=C(COc1ccccc1)Nc1nnc(COc2ccccc2)s1 | 4.24
CCN(Cc1ccccc1)C(=O)CCNS(=O)(=O)c1cc(Br)cnc1N | -14.9
COc1cc(C)ccc1OCc1cc(C(=O)N2CCN(C)C[C@@H]2c2ccccc2)no1 | -2.74
COc1cc(CC2(CCc3ccncc3)C(=O)N(C)C(=O)N(C)C2=O)cc(OC)c1OC | -8.33
Cc1oc(-c2ccc(Cl)cc2)nc1CN1CCCC(C(=O)NCCCN2CCOCC2)C1 (stereo not shown) | -19.4
Cc1ccc(C(=O)NC2CC3CCC(C2)N3C)cc1 (stereo not shown) | 5.71
O=C(COC(=O)CCc1nc2ccccc2c(=O)[nH]1)NC(=O)NC1CCCC1 | 11.7
COc1ccc(F)cc1S(=O)(=O)Nc1ccc2c(c1)OCO2 | 6.15
N#C/C(=C/c1ccc(O)cc1)C(=O)NCc1ccc(Cl)cc1 | 23.1

Compound | hERG current change (%, negative = inhibition) at 10uM [%]
COc1cccc(-c2cc(C(=O)Nc3ccc(N(C)C(C)=O)cc3)c3cc(Br)ccc3n2)c1 | 6.81
O=C(NCCN1C(=O)S/C(=C\c2ccccc2F)C1=O)C1CCN(S(=O)(=O)c2cccs2)CC1 | -57.2
COc1ccc(C(=O)C2CCCN(Cc3ccc4nonc4c3)C2)c(C)c1 (stereo not shown) | -20.3
CCc1ccc(-c2nc(CCl)cs2)cc1.Cl | -2.85
Cn1ccnc1SCC(=O)NC1CCCC1 | 32
CCC(=O)Nc1cccc(-c2nnc(SCC(=O)c3ccccc3)n2C)c1 | 5.95
CC(=O)c1ccc(NC(=O)CSc2nnc(NC(=O)CN3CCOCC3)s2)cc1 | -2.24
CN1c2ccccc2C(=O)NC1c1ccc([N+](=O)[O-])s1 (stereo not shown) | -19.5
O=C(CSCc1ccccc1)Nc1ccccc1 | 8.79
COc1ccc(/C(C)=N\NC(=O)CSc2nnc(C)s2)cc1 | -3.66
O=C(NC(=S)NCCc1ccccn1)c1ccccc1 | 6.04
COc1ccc(NC(=O)CN2C(=O)C(C)Oc3ccccc32)cc1OC (stereo not shown) | 13.8
COc1cc(Cn2c(N)c(C#N)c3nc4ccccc4nc32)cc(OC)c1 | 17
CC12CCC(C(=O)N(NC(=O)c3cc(Cl)ccc3O)C1=O)C2(C)C (stereo not shown) | 17.4
COc1cc2c(cc1OC)C(C(=O)Nc1ccc3c(c1)OCCO3)C(c1cccnc1)N(C)C2=O (stereo not shown) | 3.06
CSCCC1NC(=O)N(CC(=O)Nc2c(C(C)C)cccc2C(C)C)C1=O (stereo not shown) | 8.02
CC1CCCCN1C(=O)N[C@@H](Cc1ccccc1)C(=O)O (stereo partly shown) | 0.607
COC(=O)c1c(NC(=O)CN(c2ccc(C)c(C)c2)S(C)(=O)=O)sc2c1CCCC2 | 2.62
COc1ccc(C(=O)C2CCCN(C(=O)c3noc4c3CCCC4)C2)c(C)c1 (stereo not shown) | -17.2
COc1ccc(C2C=C(c3ccc(Cl)cc3)Nc3nc(NC(C)=O)nn32)cc1 (stereo not shown) | -39.7
CCCCCCSc1cc(-c2nc3cc(C)ccn3c2NCCCC)ccc1OC.O=C(O)C(F)(F)F | -7.35
